Data published in the supplement of paper PMC11417369.
The other results are listed elsewhere or left out.

Each sequence was assayed on PF3D7_0420300 AP2 domain 1 (GST-tagged) (assay: gcPBM binding intensity (ln(normalized median fluorescence intensity)); higher = stronger DNA binding).
Summary of the method: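 Plasmodium falciparum DNA-binding domains carrying a GST tag were expressed in E. coli and applied for 1 h, at about 25 μg on average, to an Agilent 4 × 180k array. The array held primer-extended double-stranded 36-bp intergenic genomic probes together with negative controls, and binding took place in 1× PBS with 1% milk, 0.2 mg/ml BSA, 0.5% salmon testes DNA and 0.03% Triton X-100. An Alexa488 anti-GST antibody detected bound protein, and the array was scanned at 488 nm. Binding intensity is taken as the highest Masliner-normalised natural-log median intensity across replicate spots of either probe orientation.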

Sequence | gcPBM binding intensity (ln)
TTAATACAAATAAAAAGTACAAGTATCGAACTACTA [XGTACX_site6308] | 9.28
TTTTTAGTAACATATAGTACATATATATATATATGT [XGTACX_site4780] | 9.2
TTATTTTTTCTTCAAATGTGAATTATTCATTTATTT [TGCATGCA_negctrl_site545] | 9.16
ATAATATGAAACTCGTACGAGGTTGTCCCAAATATA [CACACA_negctrl_site1350] | 9.42
GATATGTAAATAATATGTACATATTTATATTGTATT [XGTACX_site4052] | 9.36
TTTAAAGGTGATAAAACACACGATTTAGAAATGTAT [CACACA_site3161] | 9.35
ATATATTATCAACTTACACACAGAAAAATATAATAA [CACACA_site293] | 9.75
AAAAAGAATGTGAACACACACATTGAATATAATTTA [CACACA_site1262] | 9.46
AAAAAAAAAACACACACATGCACATCATATTATATA [TGCATGCA_site133] | 9.84
GTATCAAAAGAATACACACACACATACCTATAAATA [CACACA_site7737] | 10.1
AAAGGAAAAAAAGTAGCACACAAATATTTATAATAT [CACACA_site8772] | 9.67
CATACATAAATATAAACATGCATATATTTTTTTTAT [TGCATGCA_site616] | 9.26
ATTTTAATAAAATATGTACACACATACACCCATATA [CACACA_site8326] | 9.52
TGATATCTTAAGAAATGTACAAAGATATAACCATTT [XGTACX_site1913] | 9.11
TAAATAAAAAAAAATACACACATCTATATAAAATAT [CACACA_site3774] | 9.67
GATATTTTTATTTGTTGTACTTAAGATAATAAATGA [XGTACX_site2891] | 9.17
AATATATTAAAAAAGCGTACAAGAATTGGAAAATGG [XGTACX_site6576] | 9.68
AAAAAAAAAAAAATACGTACACAAAAAATTGCAAAG [XGTACX_site5663] | 9.49
ATAAATGTGTTTATTTAACACACAAAAGAAAAAATA [CACACA_site8589] | 9.55

Sequence | gcPBM binding intensity (ln)
TGTATAACCTGTGTTACACACATTAAAATTTATATA [CACACA_site4449] | 9.24
AATATATATATTAAATGTACATTACATAATTATATA [XGTACX_site3450] | 9.19
TTTTTTTTTTTAGACACATGCATTTTTATAATTTTC [TGCATGCA_site843] | 9.26
TAAATGAAAATATGTACACACTTGAAAACTTTTATG [CACACA_site7388] | 9.44
TGCAACAAAATAAACACACACACACTAGCACAAAAA [CACACA_site5805] | 10
TATATATATTAACTTGTGCGCAAAAAGATATAATTT [GTGCAC_site9672] | 9.1
AATATTTTGATGTGTACACATTAATACAGTTTTACA [CACACA_site5711] | 9.3
AAGAAATAAAAAAAACGTACATATATACATACATAC [XGTACX_site3980] | 9.47
ATATGTATGTATGTCTCAAAATTTCATATTATATTA [CACACA_negctrl_site784] | 9.21
TAGGATATTGAATAATGTACTTTATATATAATATAA [XGTACX_site7828] | 9.08
TGGTAATATCGATTCACACATATCAAAATAAAAAAA [CACACA_site4196] | 9.07
TAGGAGAAAAAAAAAAGTACCCACAACTATTATACT [XGTACX_site8195] | 9.46
AACATATTAATGTACACACACCCACGCACAAACAAA [CACACA_site7320] | 9.8
AGTATTATATATATATGTACATAATATACATATATA [XGTACX_site8514] | 9.19
TTATAAGATTTATGTACACACATATACACAGCTCTA [CACACA_site6481] | 9.44
TCCTAATGCTACCACACACACAAAAACAAATAATAA [CACACA_site2610] | 9.89
TGTCATTCCTCTTATTGTACAAAAATATTATAATAT [XGTACX_site1134] | 9.34
TATTAAAATATTTATACACACATAATTTTGATAAAT [CACACA_site4486] | 9.31
GCTATAAATACAGACGCACACATATACATACAGATA [CACACA_site5778] | 9.49

Sequence | gcPBM binding intensity (ln)
ATATACATAATATATAATATAAATATATATATGGAA [CACACA_negctrl_site906] | 9.21
TGTTATTAGAAAAATGCACACCAAAAAAAAAAAAAA [CACACA_site8802] | 9.23
ACATATTTATATTCTACACACTTATACTATAATACA [CACACA_site7204] | 9.69
TAATTAATTTACATTTTAATTTTATACAAAATTTAT [CACACA_negctrl_site830] | 8.92
GTTATACGCATCAACACACACATACAACGTGGTGTA [CACACA_site1188] | 9.48
ATGGAACTTAAAAATTGTACACATAAAATGGAGAAG [XGTACX_site1823] | 9.34
TCCAATTCTTTATTTTGTACACATTATGTGCATATG [XGTACX_site6290] | 9.24
TTTTCTTGTAGTATAACAAAATATAGTAATATATAT [GTGCAC_negctrl_site609] | 8.97
GTTGTTATATAAAGGAGTACATAATAACACAAATAT [XGTACX_site615] | 9.48
CCATTTGGTATTATATGTACATATAATTTTTTTTTT [XGTACX_site157] | 9.32
ATGAAATATTTATTTGTGCACTTAATTTGTTGGAAA | 9.13
AATCCTTCATATGTAGTGCATATTAACAAAATAAAA [GTGCAC_site9500] | 9.15
AAAAAAAAAAAAAAAACACACATTTATAGTATATAT [CACACA_site1194] | 9.36
GATTTATTTCATATCACACATTTTGGCTATTTTGTG [CACACA_site5793] | 9.59
AAAAACGAAAAAAATACACACCTGAAAAGATATGTA [CACACA_site4644] | 9.63
GTATATATGTATATGTGTACATATATTTTATAATAT [XGTACX_site5703] | 9.2
TGGAAAGTTATTAACACACACATATAAATATTTATA [CACACA_site6173] | 9.64
AGATCATAATATTATACACACATTATATATATGTAA [CACACA_site8419] | 9.42
TATATATAATATTATACACACATATCTGCATAATAT [CACACA_site4202] | 9.51
